Results: publication PMC12820563
Some of the results follow. The list includes weakly bound sequences.

These sequences were tested against T1, MBP-FoxP3dN (UniProt Q99JB6) (assay: PD-seq (MBP pull-down with sequencing)). Conditions: 20 mM Tris-HCl pH 7.5, 100 mM NaCl, 1.5 mM MgCl2, 0.4 uM protein, 0.1 uM dsDNA library, 30 min, room temperature, amylose pull-down; high values mean tight binding; double strand, one strand shown.
T1 sequence: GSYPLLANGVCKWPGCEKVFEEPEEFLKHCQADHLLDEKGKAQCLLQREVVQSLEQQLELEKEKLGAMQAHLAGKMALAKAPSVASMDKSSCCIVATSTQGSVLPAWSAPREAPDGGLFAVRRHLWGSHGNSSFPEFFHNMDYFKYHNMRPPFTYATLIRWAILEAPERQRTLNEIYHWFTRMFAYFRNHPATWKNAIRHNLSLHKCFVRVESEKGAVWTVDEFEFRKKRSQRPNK
“GATGATTGTTCTCCCAGCTGATGAATTTCCTTTGTCGAGTAAACAAATTTTCCTAATCTTTCTGTTCAAGCGCCATCTAC” was tested, and the binding signal (RPM ratio (pull-down/input)) was 0.434. In the case of “GATGATTGTTCTCCCAGCTGATGAATTCATGCGGTCGAGTAAACAAATTTTCCTAATCTTTCTGTTCAAGCGCCATCTAC”, the binding signal (RPM ratio (pull-down/input)) was 0.626. “GATGATTGTTCTCCCAGCTGATGAATTACAAACTTCGAGTAAACAAATTTTCCTAATCTTTCTGTTCAAGCGCCATCTAC” was tested, and the binding signal (RPM ratio (pull-down/input)) was 0.7. “GATGATTGTTCTCCCAGCTGATGAATTTGGCTATTCGAGTAAACAAATTTTCCTAATCTTTCTGTTCAAGCGCCATCTAC” showed a binding signal (RPM ratio (pull-down/input)) of 2.06. In the case of “GATGATTGTTCTCCCAGCTGATGAATTGGGATTTTCGAGTAAACAAATTTTCCTAATCTTTCTGTTCAAGCGCCATCTAC”, the binding signal (RPM ratio (pull-down/input)) was 0.534. Work on “GATGATTGTTCTCCCAGCTGATGAATTTAGATGTTCGAGTAAACAAATTTTCCTAATCTTTCTGTTCAAGCGCCATCTAC” yielded a binding signal (RPM ratio (pull-down/input)) of 1.78. “GATGATTGTTCTCCCAGCTGATGAATTTGCTTCATCGAGTAAACAAATTTTCCTAATCTTTCTGTTCAAGCGCCATCTAC” was tested, and the binding signal (RPM ratio (pull-down/input)) was 1.37. “GATGATTGTTCTCCCAGCTGATGAATTCCAGGCGTCGAGTAAACAAATTTTCCTAATCTTTCTGTTCAAGCGCCATCTAC” was tested, and the binding signal (RPM ratio (pull-down/input)) was 0.436. For “GATGATTGTTCTCCCAGCTGATGAATTGTCGGGTTCGAGTAAACAAATTTTCCTAATCTTTCTGTTCAAGCGCCATCTAC”, the binding signal (RPM ratio (pull-down/input)) was 0.372. “GATGATTGTTCTCCCAGCTGATGAATTTGTGCTGTCGAGTAAACAAATTTTCCTAATCTTTCTGTTCAAGCGCCATCTAC” showed a binding signal (RPM ratio (pull-down/input)) of 2.88. Sequence “GATGATTGTTCTCCCAGCTGATGAATTTTCGATGTCGAGTAAACAAATTTTCCTAATCTTTCTGTTCAAGCGCCATCTAC” has a binding signal (RPM ratio (pull-down/input)) of 0.404. “GATGATTGTTCTCCCAGCTGATGAATTTGCCCCCTCGAGTAAACAAATTTTCCTAATCTTTCTGTTCAAGCGCCATCTAC” showed a binding signal (RPM ratio (pull-down/input)) of 0.571. Work on “GATGATTGTTCTCCCAGCTGATGAATTTAGCAGGTCGAGTAAACAAATTTTCCTAATCTTTCTGTTCAAGCGCCATCTAC” yielded a binding signal (RPM ratio (pull-down/input)) of 0.708. “GATGATTGTTCTCCCAGCTGATGAATTTGCCCTATCGAGTAAACAAATTTTCCTAATCTTTCTGTTCAAGCGCCATCTAC” gave a binding signal (RPM ratio (pull-down/input)) of 0.491. In the case of “GATGATTGTTCTCCCAGCTGATGAATTGAGCAGTTCGAGTAAACAAATTTTCCTAATCTTTCTGTTCAAGCGCCATCTAC”, the binding signal (RPM ratio (pull-down/input)) was 0.808. Sequence “GATGATTGTTCTCCCAGCTGATGAATTTAGCGTATCGAGTAAACAAATTTTCCTAATCTTTCTGTTCAAGCGCCATCTAC” has a binding signal (RPM ratio (pull-down/input)) of 1.54. Work on “GATGATTGTTCTCCCAGCTGATGAATTATCCCACTCGAGTAAACAAATTTTCCTAATCTTTCTGTTCAAGCGCCATCTAC” yielded a binding signal (RPM ratio (pull-down/input)) of 0.322. “GATGATTGTTCTCCCAGCTGATGAATTCATAAGATCGAGTAAACAAATTTTCCTAATCTTTCTGTTCAAGCGCCATCTAC” gave a binding signal (RPM ratio (pull-down/input)) of 0.218. “GATGATTGTTCTCCCAGCTGATGAATTCACAGTATCGAGTAAACAAATTTTCCTAATCTTTCTGTTCAAGCGCCATCTAC” gave a binding signal (RPM ratio (pull-down/input)) of 0.581. In the case of “GATGATTGTTCTCCCAGCTGATGAATTCCTATTGTCGAGTAAACAAATTTTCCTAATCTTTCTGTTCAAGCGCCATCTAC”, the binding signal (RPM ratio (pull-down/input)) was 0.764. “GATGATTGTTCTCCCAGCTGATGAATTAAGTTTTTCGAGTAAACAAATTTTCCTAATCTTTCTGTTCAAGCGCCATCTAC” gave a binding signal (RPM ratio (pull-down/input)) of 2.4. “GATGATTGTTCTCCCAGCTGATGAATTTCGTCTATCGAGTAAACAAATTTTCCTAATCTTTCTGTTCAAGCGCCATCTAC” showed a binding signal (RPM ratio (pull-down/input)) of 0.908. In the case of “GATGATTGTTCTCCCAGCTGATGAATTGGGACGCTCGAGTAAACAAATTTTCCTAATCTTTCTGTTCAAGCGCCATCTAC”, the binding signal (RPM ratio (pull-down/input)) was 0.447. “GATGATTGTTCTCCCAGCTGATGAATTACGATAGTCGAGTAAACAAATTTTCCTAATCTTTCTGTTCAAGCGCCATCTAC” was tested, and the binding signal (RPM ratio (pull-down/input)) was 0.683. For “GATGATTGTTCTCCCAGCTGATGAATTAAGAACATCGAGTAAACAAATTTTCCTAATCTTTCTGTTCAAGCGCCATCTAC”, the binding signal (RPM ratio (pull-down/input)) was 0.337. Sequence “GATGATTGTTCTCCCAGCTGATGAATTGACTGTATCGAGTAAACAAATTTTCCTAATCTTTCTGTTCAAGCGCCATCTAC” has a binding signal (RPM ratio (pull-down/input)) of 0.645. “GATGATTGTTCTCCCAGCTGATGAATTTCGCTAGTCGAGTAAACAAATTTTCCTAATCTTTCTGTTCAAGCGCCATCTAC” was tested, and the binding signal (RPM ratio (pull-down/input)) was 1.24. Sequence “GATGATTGTTCTCCCAGCTGATGAATTTTCACACTCGAGTAAACAAATTTTCCTAATCTTTCTGTTCAAGCGCCATCTAC” has a binding signal (RPM ratio (pull-down/input)) of 0.309. For “GATGATTGTTCTCCCAGCTGATGAATTCAGTTGATCGAGTAAACAAATTTTCCTAATCTTTCTGTTCAAGCGCCATCTAC”, the binding signal (RPM ratio (pull-down/input)) was 2.08. Sequence “GATGATTGTTCTCCCAGCTGATGAATTCTGGAGGTCGAGTAAACAAATTTTCCTAATCTTTCTGTTCAAGCGCCATCTAC” has a binding signal (RPM ratio (pull-down/input)) of 0.216. “GATGATTGTTCTCCCAGCTGATGAATTTGAGGCATCGAGTAAACAAATTTTCCTAATCTTTCTGTTCAAGCGCCATCTAC” gave a binding signal (RPM ratio (pull-down/input)) of 0.877.
